Among the data in paper PMC10411901, “FIRRM cooperates with FIGNL1 to promote RAD51 disassembly during DNA repair” (Science Advances, 2023) are binding values, retold here.

Holding throughout (assay): LacO/LacR tethering assay (recruitment to a LacO array in cells); mCherry-LacRnls-bait transiently transfected and held at the LacO array of U2OS 2-6-5 cells; colocalization of the GFP-tagged prey at the mCherry locus quantified; FOK1 nuclease not expressed
Test [1] addresses T1, mCherry-LacRnls-FIGNL1 ∆FRBD (human) (UniProt Q6PIW4).
T1 sequence: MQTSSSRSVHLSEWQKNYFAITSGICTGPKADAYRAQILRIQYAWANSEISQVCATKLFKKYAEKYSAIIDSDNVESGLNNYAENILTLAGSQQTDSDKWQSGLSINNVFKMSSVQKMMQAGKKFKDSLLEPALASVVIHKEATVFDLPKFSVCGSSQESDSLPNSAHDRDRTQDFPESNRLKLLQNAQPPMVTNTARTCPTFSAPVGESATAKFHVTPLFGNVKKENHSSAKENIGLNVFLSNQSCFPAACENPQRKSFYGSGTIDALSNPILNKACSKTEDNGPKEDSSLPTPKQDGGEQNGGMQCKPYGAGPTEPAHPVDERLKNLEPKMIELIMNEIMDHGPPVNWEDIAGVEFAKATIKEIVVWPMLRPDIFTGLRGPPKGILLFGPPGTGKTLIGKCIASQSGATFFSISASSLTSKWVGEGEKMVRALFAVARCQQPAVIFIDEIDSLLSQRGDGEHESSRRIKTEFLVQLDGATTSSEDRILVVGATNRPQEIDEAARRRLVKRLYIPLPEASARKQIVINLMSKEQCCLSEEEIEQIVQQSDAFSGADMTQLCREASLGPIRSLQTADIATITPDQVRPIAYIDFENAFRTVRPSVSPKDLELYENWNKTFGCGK

The target of test [2] is T2, mCherry-LacRnls-FIGNL1 D500A (human) (UniProt Q6PIW4).
T2 sequence: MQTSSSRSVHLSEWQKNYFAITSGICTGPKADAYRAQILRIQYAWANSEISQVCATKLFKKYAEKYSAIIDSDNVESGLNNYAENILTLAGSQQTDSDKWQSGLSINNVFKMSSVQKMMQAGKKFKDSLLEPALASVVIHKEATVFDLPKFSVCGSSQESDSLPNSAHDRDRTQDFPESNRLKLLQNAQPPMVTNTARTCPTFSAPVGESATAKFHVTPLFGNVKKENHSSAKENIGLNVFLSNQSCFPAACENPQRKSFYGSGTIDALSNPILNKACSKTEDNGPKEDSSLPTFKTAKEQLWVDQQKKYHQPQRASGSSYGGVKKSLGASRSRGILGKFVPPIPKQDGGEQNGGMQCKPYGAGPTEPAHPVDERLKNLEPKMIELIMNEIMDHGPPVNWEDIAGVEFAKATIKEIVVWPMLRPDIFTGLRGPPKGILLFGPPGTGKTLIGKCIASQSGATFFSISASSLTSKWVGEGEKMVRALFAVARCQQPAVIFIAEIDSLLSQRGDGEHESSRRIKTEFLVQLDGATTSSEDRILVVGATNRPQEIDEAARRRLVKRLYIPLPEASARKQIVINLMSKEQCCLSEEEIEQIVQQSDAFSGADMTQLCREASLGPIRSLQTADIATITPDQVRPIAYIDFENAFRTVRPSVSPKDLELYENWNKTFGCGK

Test [3] has as its target T3, mCherry-LacRnls-FIGNL1 amino acids 121 to 674 (human) (UniProt Q6PIW4).
T3 sequence: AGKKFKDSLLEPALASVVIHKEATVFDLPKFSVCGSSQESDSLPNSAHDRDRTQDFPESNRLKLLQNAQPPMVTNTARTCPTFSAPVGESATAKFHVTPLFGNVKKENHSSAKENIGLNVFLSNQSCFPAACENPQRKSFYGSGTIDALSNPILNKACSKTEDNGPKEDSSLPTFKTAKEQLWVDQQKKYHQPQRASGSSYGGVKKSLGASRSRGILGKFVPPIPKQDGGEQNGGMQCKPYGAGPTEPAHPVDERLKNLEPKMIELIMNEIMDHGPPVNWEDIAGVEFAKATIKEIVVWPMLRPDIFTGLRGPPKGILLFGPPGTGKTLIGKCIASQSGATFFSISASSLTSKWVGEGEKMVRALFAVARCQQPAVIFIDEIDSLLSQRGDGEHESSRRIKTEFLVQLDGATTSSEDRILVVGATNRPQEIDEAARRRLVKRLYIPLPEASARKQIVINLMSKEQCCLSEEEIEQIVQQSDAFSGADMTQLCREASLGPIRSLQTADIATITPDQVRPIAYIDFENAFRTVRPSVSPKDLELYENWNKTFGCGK

Test [4] has as its target T4, mCherry-LacRnls-FIGNL1 F295E (human) (UniProt Q6PIW4).
T4 sequence: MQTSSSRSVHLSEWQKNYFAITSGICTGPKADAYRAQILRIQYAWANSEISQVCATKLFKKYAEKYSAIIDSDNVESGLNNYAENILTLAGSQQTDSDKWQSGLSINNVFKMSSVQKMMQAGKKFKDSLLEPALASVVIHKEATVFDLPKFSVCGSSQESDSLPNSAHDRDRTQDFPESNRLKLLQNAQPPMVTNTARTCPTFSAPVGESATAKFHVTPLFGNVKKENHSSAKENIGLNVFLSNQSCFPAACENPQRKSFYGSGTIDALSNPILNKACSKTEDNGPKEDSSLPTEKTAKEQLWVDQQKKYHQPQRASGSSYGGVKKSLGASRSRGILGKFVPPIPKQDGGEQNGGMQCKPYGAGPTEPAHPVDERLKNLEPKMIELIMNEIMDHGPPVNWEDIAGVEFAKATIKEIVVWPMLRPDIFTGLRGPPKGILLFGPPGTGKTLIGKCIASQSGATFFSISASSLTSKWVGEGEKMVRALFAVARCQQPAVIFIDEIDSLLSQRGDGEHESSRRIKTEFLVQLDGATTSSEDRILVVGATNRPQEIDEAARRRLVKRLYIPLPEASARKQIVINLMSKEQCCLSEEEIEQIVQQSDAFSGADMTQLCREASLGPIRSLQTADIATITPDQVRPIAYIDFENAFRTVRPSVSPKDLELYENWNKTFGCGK

Results are given in words; binding and its absence hold for the method and conditions named. Some results given as binding are weak or reduced against the parent protein; the word gives no strength. Tags and fused reporters may be left off the sequences shown.

B1: GFP-FIRRM full length (protein, UniProt Q9NSG2 1-853)
chain: MFLPHMNHLTLEQTFFSQVLPKTVKLFDDMMYELTSQARGLSSQNLEIQTTLRNILQTMVQLLGALTGCVQHICATQESIILENIQSLPSSVLHIIKSTFVHCKNSESVYSGCLHLVSDLLQALFKEAYSLQKQLMELLDMVCMDPLVDDNDDILNMVIVIHSLLDICSVISSMDHAFHANTWKFIIKQSLKHQSIIKSQLKHKDIITSLCEDILFSFHSCLQLAEQMTQSDAQDNADYRLFQKTLKLCRFFANSLLHYAKEFLPFLSDSCCTLHQLYLQIHSKFPPSLYATRISKAHQEEIAGAFLVTLDPLISQLLTFQPFMQVVLDSKLDLPCELQFPQCLLLVVVMDKLPSQPKEVQTLWCTDSQVSETTTRISLLKAVFYSFEQCSGELSLPVHLQGLKSKGKAEVAVTLYQHVCVHLCTFITSFHPSLFAELDAALLNAVLSANMITSLLAMDAWCFLARYGTAELCAHHVTIVAHLIKSCPGECYQLINLSILLKRLFFFMAPPHQLEFIQKFSPKEAENLPLWQHISFQALPPELREQTVHEVTTVGTAECRKWLSRSRTLGELESLNTVLSALLAVCNSAGEALDTGKQTAIIEVVSQLWAFLNIKQVADQPYVQQTFSLLLPLLGFFIQTLDPKLILQAVTLQTSLLKLELPDYVRLAMLDFVSSLGKLFIPEAIQDRILPNLSCMFALLLADRSWLLEQHTLEAFTQFAEGTNHEEIVPQCLSSEETKNKVVSFLEKTGFVDETEAAKVERVKQEKGIFWEPFANVTVEEAKRSSLQPYAKRARQEFPWEEEYRSALHTIAGALEATESLLQKGPAPAWLSMEMEALQERMDKLKRYIHTLG
As to B1, the binding result in test [1] is reported as “binds”; in test [2] it was “binds”; in test [3], “no binding”; in test [4] it was “binds”.
